Test [1] has as its target One-Strep tagged TSG101 (OSHA-TSG101) (human) (UniProt Q99816). The test is described as follows: pull-down; lysate of cells stably expressing OSHA-TSG101 at endogenous levels; affinity purification on a Strep-Tactin matrix; western blot with anti-TSG101, anti-VPS37A and anti-UBAP1; empty vector (OSHA) cells as control. A general note: A western blot detects proteins with antibodies after separation by electrophoresis.

Amino acid sequences for entries named in this document (tags omitted). A change or cut given only in a name is not applied to a line headed by its entry.
UniProt Q8NEZ2: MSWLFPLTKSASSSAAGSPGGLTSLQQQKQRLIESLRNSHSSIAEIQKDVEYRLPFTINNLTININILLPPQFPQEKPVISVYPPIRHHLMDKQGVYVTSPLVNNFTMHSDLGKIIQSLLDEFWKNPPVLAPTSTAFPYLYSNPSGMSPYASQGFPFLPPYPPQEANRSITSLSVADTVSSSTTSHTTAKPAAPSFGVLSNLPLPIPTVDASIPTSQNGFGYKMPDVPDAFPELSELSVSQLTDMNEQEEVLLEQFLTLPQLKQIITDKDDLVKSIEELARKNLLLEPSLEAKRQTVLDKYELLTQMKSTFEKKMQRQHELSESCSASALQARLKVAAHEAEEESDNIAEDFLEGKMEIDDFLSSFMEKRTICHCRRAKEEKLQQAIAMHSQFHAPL

The target of test [2] is T1, UBAP1 (1-68)-His6 (human) (UniProt Q9NZ09).
T1 sequence: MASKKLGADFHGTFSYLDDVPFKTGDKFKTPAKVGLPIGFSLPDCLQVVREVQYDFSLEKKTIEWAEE
The test is described as follows: pull-down + SEC; subunits coexpressed in E. coli from a polycistronic vector; complex purified by affinity chromatography (C-terminal His6 on UBAP1) and gel filtration (HiLoad 16/60 Superdex 200); Coomassie-stained SDS-PAGE of the peak. (In general: Size exclusion chromatography separates by hydrodynamic size, large species first.)

The target of test [3] is T2, UBAP1 (1-77)-His6 (human) (UniProt Q9NZ09).
T2 sequence: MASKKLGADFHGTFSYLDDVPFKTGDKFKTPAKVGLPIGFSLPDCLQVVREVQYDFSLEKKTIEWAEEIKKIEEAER
Described as above.

Test [4] deals with T3, UBAP1 (1-92)-His6 (human) (UniProt Q9NZ09).
T3 sequence: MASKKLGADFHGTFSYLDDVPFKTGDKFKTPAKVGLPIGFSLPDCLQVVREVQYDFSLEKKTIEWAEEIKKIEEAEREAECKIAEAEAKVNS
The description is as above.

The target in test [5] is T4, UBAP1-His6, full-length human UBAP1 (ubiquitin associated protein 1) (human) (UniProt Q9NZ09).
T4 sequence: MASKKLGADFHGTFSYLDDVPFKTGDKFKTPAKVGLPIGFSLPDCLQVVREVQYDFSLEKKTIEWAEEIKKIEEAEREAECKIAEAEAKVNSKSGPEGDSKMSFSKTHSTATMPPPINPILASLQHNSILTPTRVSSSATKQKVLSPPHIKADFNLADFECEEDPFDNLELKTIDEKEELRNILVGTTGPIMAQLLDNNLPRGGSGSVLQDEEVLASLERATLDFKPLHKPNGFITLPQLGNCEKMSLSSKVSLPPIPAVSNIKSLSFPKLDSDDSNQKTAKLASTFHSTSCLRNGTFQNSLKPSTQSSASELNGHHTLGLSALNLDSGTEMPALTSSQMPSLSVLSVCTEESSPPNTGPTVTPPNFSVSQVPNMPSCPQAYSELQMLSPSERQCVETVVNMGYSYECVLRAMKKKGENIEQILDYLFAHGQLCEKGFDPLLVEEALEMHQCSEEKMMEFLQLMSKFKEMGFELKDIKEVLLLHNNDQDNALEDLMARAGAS
The description is as above.

The target of the next test is GST-TSG101 (human) (UniProt Q99816). The test can be described thus: pull-down; 293T cells transfected with GST-TSG101, Myc-VPS28, HA-VPS37A and HA-UBAP1 (WT or M1 to M4); glutathione-coated beads; western blot with anti-HA.
The target in another test is T5, GST-UBAP1 (human) (UniProt Q9NZ09).
T5 sequence: T4 sequence
The test can be described thus: pull-down; GST fusions overexpressed in 293T cells, purified with glutathione beads; endogenous TSG101 detected (Figure S1C).

Results are given in words; binding and its absence hold for the method and conditions named. In cells and extracts the contact can be indirect. Some results given as binding are weak or reduced against the parent protein; the word gives no strength. For some assays here: Sequences can lack the tags named with a protein.

For “VPS37A of the OSHA-TSG101 cell line (from UniProt Q8NEZ2 1-397)”, the binding result in test [1] was “binds”.

On to “VPS37A (229-397) (from UniProt Q8NEZ2 229-397) (domain or fragment)”, for which the binding entry in test [2], in test [3], in test [4] and in test [5] was “binds” in each case.

Turning to HA-VPS37A (from UniProt Q8NEZ2 1-397), in the test with GST-TSG101 (human), the binding entry was “binds”.

Turning to “endogenous TSG101 of 293T cells (from UniProt Q99816 1-390)”, the binding entry in the test with GST-UBAP1 (human) is “binds”.

As to “TSG101 (198-390) (from UniProt Q99816 198-390) (domain or fragment)”, the binding result in test [2], in test [3], in test [4] and in test [5] was “binds” throughout.

The record behind these values is PMC3314968.
